# The campaign covered roughly 310,000 compounds. About 14,000 (4.5%) showed an effect of 50% or more. Effects have a minus sign here. This is one part of the list.
# Target: human ether-à-go-go-related gene (hERG) potassium channel (human, UniProt Q12809)
# Experiment: primary screen, population patch clamp on CHO cells stably expressing hERG
# 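Note: peak tail current of the secondary pulse compared with the same well before compound.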
# Sequence of human ether-à-go-go-related gene (hERG) potassium channel (Q12809 whole entry, looked up): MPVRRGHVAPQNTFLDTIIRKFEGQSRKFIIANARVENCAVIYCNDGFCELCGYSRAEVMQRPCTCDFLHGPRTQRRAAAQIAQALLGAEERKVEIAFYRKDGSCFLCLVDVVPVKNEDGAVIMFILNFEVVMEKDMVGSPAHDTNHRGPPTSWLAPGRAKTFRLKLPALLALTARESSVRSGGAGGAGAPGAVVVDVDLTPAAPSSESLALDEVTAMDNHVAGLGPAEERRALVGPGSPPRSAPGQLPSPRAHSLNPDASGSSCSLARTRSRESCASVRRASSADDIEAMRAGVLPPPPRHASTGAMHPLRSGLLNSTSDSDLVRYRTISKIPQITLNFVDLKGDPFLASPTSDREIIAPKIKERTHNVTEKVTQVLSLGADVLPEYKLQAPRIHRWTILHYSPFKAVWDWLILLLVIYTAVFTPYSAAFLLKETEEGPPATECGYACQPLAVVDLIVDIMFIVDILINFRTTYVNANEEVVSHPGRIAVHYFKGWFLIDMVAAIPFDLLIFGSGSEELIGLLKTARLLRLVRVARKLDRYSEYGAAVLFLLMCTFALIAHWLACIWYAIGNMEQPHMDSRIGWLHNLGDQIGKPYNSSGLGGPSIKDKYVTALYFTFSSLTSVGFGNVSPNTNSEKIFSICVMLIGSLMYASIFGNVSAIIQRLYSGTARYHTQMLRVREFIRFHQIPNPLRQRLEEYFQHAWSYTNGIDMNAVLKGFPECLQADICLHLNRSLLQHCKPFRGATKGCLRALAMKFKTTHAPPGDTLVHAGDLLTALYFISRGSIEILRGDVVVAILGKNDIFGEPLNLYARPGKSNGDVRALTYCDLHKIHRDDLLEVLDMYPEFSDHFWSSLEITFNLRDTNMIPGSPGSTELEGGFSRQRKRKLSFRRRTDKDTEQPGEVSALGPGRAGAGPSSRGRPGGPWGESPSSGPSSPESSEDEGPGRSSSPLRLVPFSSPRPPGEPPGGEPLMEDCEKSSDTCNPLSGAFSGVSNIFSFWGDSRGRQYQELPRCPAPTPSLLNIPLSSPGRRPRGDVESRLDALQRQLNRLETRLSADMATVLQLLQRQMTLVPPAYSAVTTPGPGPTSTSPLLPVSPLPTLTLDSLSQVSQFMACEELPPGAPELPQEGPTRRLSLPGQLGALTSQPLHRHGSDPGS
row,SMILES,"hERG current change (%, negative = inhibition) at 10uM [%]"
1,COc1ccc(CC(=O)Nc2cc(Cl)ccc2O)cc1,-1.45
2,CSc1cccc(N2CC(C(=O)Nc3cccc(S(=O)(=O)N4CCCC4)c3)CC2=O)c1 (stereo not shown),3.7
3,CCC(=O)N1N=C(c2ccccc2)CC1c1ccccc1 (stereo not shown),2.71
4,COCC(=O)Nc1ccc(S(=O)(=O)NCC2CCCO2)cc1 (stereo not shown),14.5
5,CCN(CC)CCNC(=O)c1ccc(NC(=O)c2ccc(C(=O)c3ccccc3)cc2)cc1,-43.7
6,CCc1c(O)nc(SCC(=O)Nc2ccc(C)cc2)n(C2CCCCC2)c1=O,-3.5
7,CO/N=C(\Cn1ncc(N2CCCC2)c(Cl)c1=O)c1ccc(Cl)cc1,-64
8,CC1CCC(N(C)C2CCN(C)CC2)CC1 (stereo not shown),11.3
9,Cc1nn(-c2ccccc2)c(C)c1-c1nnc(C(F)(F)F)o1,2.32
10,COc1ccc(N(CC(=O)Nc2cc(Cl)ccc2C)S(=O)(=O)c2c(C)noc2C)cc1,16.7
11,COc1ccc(OC)c(NC(=O)Cc2coc3cc(C)cc(C)c23)c1,1.9
12,CCCn1c(NC(=O)CN2C(=O)NC3(CCCC3)C2=O)nc2ccccc21,13.3
13,CC1=C(C(=O)Nc2ccccc2)C(c2ccccc2[N+](=O)[O-])NC(=O)N1 (stereo not shown),8.81
14,C[C@H](NC(=O)c1nc[nH]c1C(=O)NCC(=O)OC(C)(C)C)C(=O)OC(C)(C)C,8.56
15,COc1ccc(-n2c(SCC(=O)NCc3ccco3)nc3c([nH]c4ccccc43)c2=O)cc1,16.2
16,CC(=O)c1ccc(N2C(=O)[C@@H]3C(C(=O)CCN4C(=O)c5ccccc5C4=O)=NN[C@@H]3C2=O)cc1,-37.2
17,Cc1ccccc1OCC(=O)Nc1ccccc1N1CCCCC1,19.9
18,CCc1cc(C(=O)N2CCCC(C(=O)c3ccc(OC)c(F)c3)C2)n(C)n1 (stereo not shown),-34.6
19,O=C(O)c1ccc2c(=O)n3c(nc2c1)/C(=C/c1ccccc1Br)CC3,4.66
20,Cc1ccc(-c2c[n+](CC(=O)Nc3cc(=O)n(C)c(=O)n3C)c3n2CCC3)cc1.[Cl-],-0.179
21,Cc1ccc(-n2c(C(C)C)nc3oc4ccccc4c(=O)c3c2=O)cc1,8.55
22,C=C(C)CNC(=S)NNC(=O)c1cc(C)oc1C,2.46

row,SMILES,"hERG current change (%, negative = inhibition) at 10uM [%]"
1,O=C(Nc1c2c(nc3ccccc13)CCCC2)c1ccccc1Cl,17.2
2,CC(Sc1nnc(-c2cccs2)n1C1CC1)C(=O)NCC1CCCO1 (stereo not shown),-12.1
3,O=C(CN(C(=O)CCC(=O)Nc1nccs1)c1ccc(F)cc1)NCc1ccccc1,29.1
4,CCCS(=O)(=O)c1nc(S(=O)(=O)c2ccc(C)cc2)c(N2CC(C)OC(C)C2)s1 (stereo not shown),-3.25
5,COC(=O)c1ccccc1S(=O)(=O)N1CCC(C(=O)N2CCC2)CC1,3.96
6,COc1ccccc1NC(=O)NCCC1=CCCCC1,-10.8
7,COc1nsnc1N1CCOCC1,9.24
8,Cc1cc(C)c(O)c(NC(=S)NC(=O)Cc2ccccc2)c1,15.7
9,C#CCOCCOCCOCCNc1nc(N2CCN(C(=O)[C@H](CCC(=O)O)n3cc(C(N)Cc4ccc(O)cc4)nn3)CC2)nc(N2CCN(C(=O)[C@H](CCC(=O)O)n3cc(C(N)[C@H](C)CC)nn3)CC2)n1.Cl (stereo partly shown),19.4
10,Cc1nn(-c2nnc(NC3CCCCC3)nn2)c(C)c1Br,10.8
11,O=C1C(=O)N(CCS(=O)(=O)c2ccccc2)c2ccc(Cl)cc21,-5.96
12,C/C(CC(=O)Nc1ccccn1)=N\NC(=O)c1cnccn1,-4.11
13,O=C(NCc1ccccc1CN1CCCC1)c1ccc(Cl)c(N2CCCC2=O)c1,-3.14
14,O=C(O)CCn1cc(-c2ccc(Cl)cc2)nc1-c1ccc(Cl)nc1,12.5
15,CN(C)S(=O)(=O)c1cccc(NC(=O)NCCCl)c1,0.815
16,O=C(CCC(=O)N1CCN(C(=O)c2ccco2)CC1)c1ccc(F)cc1,-66.7
17,CC1=C(C(=O)N2CCOCC2)C(c2ccc(Br)cc2)NC(=S)N1c1ccccc1 (stereo not shown),1.32
18,COCCn1c(SCC(=O)NC2CCCC2)nnc1-c1ccncc1,-3.49
19,Cc1nn(-c2ccc(Cl)cc2)c2sc(C(=O)c3c(N)n(C)c(=O)n(C)c3=O)cc12,-1.02
20,COCCCn1c(=S)[nH]c2sc3c(c2c1=O)CCCS3,24.3
21,COc1ccc(NC(=O)CN(C)CC(=O)Nc2ccc(N3CCOCC3)cc2)c([N+](=O)[O-])c1,-26.2
22,Cc1cnc(C)c(N2CCC(C(=O)NCc3ccco3)CC2)n1,-6.65

row,SMILES,"hERG current change (%, negative = inhibition) at 10uM [%]"
1,Cc1cc(=O)oc2cc(OCc3nnc(-c4ccccc4Br)o3)ccc12,1.65
2,CC1CN(C(=O)c2c([N+](=O)[O-])cnn2C)CC(C)O1 (stereo not shown),0.716
3,O=C(NC(C(Cl)Cl)N1CCOCC1)c1ccccc1 (stereo not shown),13
4,CN(Cc1ccccc1)C(=O)COC(=O)c1cc(NS(=O)(=O)c2cccs2)ccc1O,-0.596
5,COc1cccc(N2CCN(S(=O)(=O)c3ccc4c(c3)oc(=O)n4C)CC2)c1,26
6,CN(C)CCN(C(=O)c1ccc(S(=O)(=O)N2CCc3ccccc32)cc1)c1nc2ccc(F)cc2s1.Cl,-12.7
7,O=C(CSc1nnnn1Cc1ccccc1)NC1CCCCC1,-2.23
8,COc1cccc(NC(=O)C(C)OC(=O)c2n[nH]c3ccccc23)c1 (stereo not shown),-6.49
9,Cc1nn(C)c(C)c1NC(=O)CSc1nnc(C)n1-c1ccccc1,-0.523
10,COc1cc(/C=N/NC(=O)c2ccoc2C)cc(OC)c1OC,13.1
11,Cc1ccc(-c2nc(-c3nccc4ccccc34)oc2-c2ccccc2)cc1,15.3
12,O=C(c1ccccc1)N1CCN(c2ccc(NCc3ccc4c(c3)OCO4)cc2)CC1,-12.2
13,Cc1oc(C)c(C(N)=O)c1C(N)=O,5.58
14,CC(C)NC(=O)Cn1c(=O)c2c(ncn2Cc2ccccc2)n(Cc2ccccc2)c1=O,2.66
15,O=C(c1cnn(-c2ccccc2)c1)c1cc(Br)ccc1O,11.6
16,O=C(CSc1nnc(COc2ccc(Cl)cc2)o1)NC1CC2CCC1C2 (stereo not shown),11.5
17,CC(C)c1nc2sc3c(c2c(=O)[nH]1)CC(C)(C)OC3,17.7
18,CC(C)CN(C(=O)c1ccc(-n2cncn2)c([N+](=O)[O-])c1)C1CCS(=O)(=O)C1 (stereo not shown),-12.9
19,Cc1ccc(SCCC(=O)N/N=C/c2ccccc2O)cc1,13.2
20,Br.CCCC1CC(=O)OC1(C)C(=O)CSc1n[nH]c(-c2ccccc2)n1 (stereo not shown),-3.65
21,CCCC(=O)Nc1ccc(C(=O)NCc2ccccc2Cl)cc1,14.1
22,Oc1ccccc1/C=N/Nc1cccc2cccnc12,-10.2

row,SMILES,"hERG current change (%, negative = inhibition) at 10uM [%]"
1,CCN(c1ccccc1)S(=O)(=O)c1ccc(Cl)c(NC(=O)CSc2ncn[nH]2)c1,-1.32
2,CC(=O)Oc1cc(C)cc2oc(=O)cc(-c3ccccc3)c12,-4.92
3,CC(=O)NCCC(=O)Nc1ncc(S(=O)(=O)c2ccc([N+](=O)[O-])cc2)s1,2.71
4,c1ccc(-c2nnc(CN3CCC4(CC3)OCCO4)o2)cc1,9.72
5,Cc1nc2cc(N3CCCCC3)c(NC(=O)c3cccnc3)cc2c(=O)n1Cc1ccccc1,0.806
6,Cl.Oc1ccc(C(c2nnnn2C2CCCCC2)N2CCOCC2)cc1 (stereo not shown),6.1
7,Cc1ccc(C2C(C#N)=C(N)Oc3c2sc2ccccc32)o1 (stereo not shown),5.67
8,Cc1ccc(N2CC(C(=O)Nc3ccc(S(=O)(=O)N4CCCC4)cc3)CC2=O)cc1C (stereo not shown),6.52
9,COc1ccc(/C=C/C(=O)Nc2cccc(S(=O)(=O)N3CCCC3)c2)cc1OC,-0.417
10,CCOc1cc(NC(=O)c2ccco2)c(OCC)cc1NC(=O)CCc1ccccc1OC,3.6
11,CC(N=C1NS(=O)(=O)c2ccccc21)C(=O)OCC(=O)N(C)C1CCS(=O)(=O)C1 (stereo not shown),-8.64
12,Cc1ccc2nc(C)c(C(=O)N/N=C/c3ccc(C(=O)O)cc3)cc2c1,15.5
13,CCOC(=O)c1c(NC(=O)C(C)S(=O)(=O)c2cn(CC)c3ccccc23)sc2c1CCCC2 (stereo not shown),8.15
14,O=C(NNC(=O)c1ccc2c(c1)OCO2)NC1CCCCC1,3.93
15,CCN1C(=O)/C(=C2\SC(=S)N(CCCOC)C2=O)c2ccccc21,5.52
16,COC(=O)c1cn(CC(=O)Nc2ccc(F)cc2)c2ccccc12,17.2
17,Cc1nc(SC2CC(=O)N(c3ccc([N+](=O)[O-])cc3)C2=O)nc2c1CCCC2 (stereo not shown),-20.4
18,C#CCNC(=O)C1CCN(c2ccc(S(=O)(=O)N3CCOCC3)cc2Cl)CC1,-6.39
19,C=CCn1c(SCC(=O)Nc2ncc(Cc3ccc(Br)cc3)s2)nnc1-c1ccncc1,11
